# Measured values as given in PubChem BioAssay (Tox21).
# This list was built around the results that the source calls inconclusive (neither active nor inactive); the mix of calls is not that of the screen. For some assays here: Potencies of inconclusive entries are left out as doubtful fits. Calls of active or inactive are those of the source. Unless noted, calls come from the whole dose curve; as a rule, active = well fitted curve in the direction sought with a large enough effect in the repeat runs; inconclusive = weak or mixed curves; inactive = no such curve, though single readings can be large; an effect the other way counts as inactive or inconclusive.
# Assays:
# [1] = qHTS assay to identify small molecule antagonists of the glucocorticoid receptor (GR) signaling pathway - cell viability counter screen (AID 720693); settings: GR-bla HeLa viability, CellTiter-Glo luminescence, 18 h, with 5 nM dexamethasone present; viability change, negative = cytotoxic: at 58.5 µM (top of the series) unless noted; note: nearly all actives have a fitted effect of over 55% in size; note: potency is the fitted concentration of half-maximal effect
# [2] = qHTS assay for identifying genotoxic compounds that show differential cytotoxicity against isogenic chicken DT40 cell lines with known DNA damage response pathways - wild type cell line (AID 743012); settings: DT40 wild type chicken cells viability, CellTiter-Glo, 40 h; activity change, negative = cytotoxicity: at 68.4 µM (top of the series) unless noted; note: nearly all actives have a fitted effect of over 60% in size; note: potency is the fitted concentration of half-maximal effect
# Summary of the method: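 Cells (DT40 wild type, 300/well) are treated with DMSO-dissolved compounds after a ~0.5 h pre-incubation and kept 40 h at 37 C/5% CO2. Viability is then measured by CellTiter-Glo luminescence following 30 min at room temperature.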
# [3] = qHTS assay for identifying genotoxic compounds that show differential cytotoxicity against isogenic chicken DT40 cell lines with known DNA damage response pathways - Rev3 mutant cell line (AID 743014); settings: chicken DT40 Rev3-/- viability, CellTiter-Glo, 40 h; series mostly up to 68.4 µM; note: potency is the fitted concentration of half-maximal effect; nearly all actives have a fitted effect of over 55% in size
# [4] = qHTS assay to identify small molecule antagonists of the androgen receptor (AR) signaling pathway using the MDA cell line - cell viability counter screen (AID 743041; note: nearly all actives have a fitted effect of over 45% in size; note: potency is the fitted concentration of half-maximal effect); settings: MDA-kb2 viability, CellTiter-Fluor, 16 h, cells co-treated with R1881 androgen agonist; viability change, negative = cytotoxic: at 70.3 µM (top of the series) unless noted
# Summary of the method: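 MDA-kb2 AR-luc human breast carcinoma cells (MMTV-luciferase, AR/GR responsive) were treated with compounds plus R1881 agonist for 16 h at 37 °C. Viability was read as CellTiter-Fluor fluorescence in the same wells as the reporter assay.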
# [5] = qHTS assay to identify small molecule antagonists of the estrogen receptor alpha (ER-alpha) signaling pathway - cell viability counter screen (AID 743074; calls by dose curve; note: potency is the fitted concentration of half-maximal effect; nearly all actives have a fitted effect of over 45% in size)
# [6] = qHTS assay to identify small molecule antagonists of the thyroid receptor (TR) signaling pathway - cell viability counter screen (AID 743064); settings: GH3.TRE-Luc viability, CellTiter-Fluor, 24 h; activity change, negative = cytotoxic: at 70.3 µM (top of the series) unless noted; note: potency is the fitted concentration of half-maximal effect; nearly all actives have a fitted effect of over 50% in size
# Summary of the method: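 Viability of T3-stimulated (1 nM final) GH3.TRE-Luc cells is measured by CellTiter-Fluor fluorescence after 23.5 h compound exposure at 37 °C plus 30 min reagent incubation.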
# [7] = target: Estrogen receptor (Homo sapiens) (UniProt P03372); assay: qHTS assay to identify small molecule antagonists of the estrogen receptor alpha (ER-alpha) signaling pathway (AID 743069; active = well fitted curve in the direction sought with a large enough effect in the signal ratio in the repeat runs, not every such curve was filed as active; inconclusive = weak or mixed curves, or effect the other way; inactive = no such curve, though single readings can be large or run the other way; the % refers to the signal ratio; note: potency is the fitted concentration of half-maximal effect); settings: HEK293 ER-alpha-UAS-bla, beta-lactamase ratio, antagonist mode; activity, negative = inhibition: at 69.4 µM (top of the series) unless noted
# Summary of the method: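 HEK293 cells stably carrying an ER-alpha-UAS-bla beta-lactamase reporter were pre-cultured overnight in 2% charcoal-stripped FBS medium. Test compounds in DMSO were added together with 17beta-estradiol for 18 hr at 37C. Read-out was fluorescence after 2 hr with LiveBLAzer B/G FRET substrate at room temperature.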
# [8] = target: Estrogen receptor (Homo sapiens) (UniProt P03372); assay: qHTS assay to identify small molecule agonists of the estrogen receptor alpha (ER-alpha) signaling pathway using the BG1 cell line (AID 743079); settings: BG1Luc4E2 cells, ERE-luciferase agonist, 22 h; activation: at 70.3 µM (top of the series) unless noted; note: potency is the fitted concentration of half-maximal effect; nearly all actives have a fitted effect of over 20% in size
# [9] = qHTS assay to identify small molecule antagonists of the estrogen receptor alpha (ER-alpha) signaling pathway using the BG1 cell line (AID 743080; calls by dose curve;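 note: BG1 cells stimulated with 17beta-estradiol alongside compound; potency is the fitted concentration of half-maximal effect; nearly all actives have a fitted effect of over 25% in size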); settings: BG1Luc4E2 ERE-luciferase antagonist mode, luminescence; activity change, negative = inhibition: at 70.3 µM (top of the series) unless noted
# Summary of the method: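 Seeding, 24 h rest, compound transfer from DMSO, 17beta-estradiol addition, 21.5 h incubation, CellTiter-Fluor (30 min, 37 C), then ONE-Glo (30 min, room temperature): this sequence was run on BG1-Luc-4E2 reporter cells.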
# [10] = qHTS assay to identify small molecule antagonists of the estrogen receptor alpha (ER-alpha) signaling pathway using the BG1 cell line - cell viability counter screen (AID 743081); settings: BG1Luc4E2 viability, CellTiter-Fluor, 22 h; activity change, negative = cytotoxicity: at 70.3 µM (top of the series) unless noted;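 note: compound given together with 17beta-estradiol as the ER stimulus; potency is the fitted concentration of half-maximal effect; nearly all actives have a fitted effect of over 45% in size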
# [11] = qHTS assay to identify small molecule antagonists of the androgen receptor (AR) signaling pathway - cell viability counter screen (AID 743033; note: nearly all actives have a fitted effect of over 45% in size; note: potency is the fitted concentration of half-maximal effect); settings: AR-bla HEK293 viability, CellTiter-Glo luminescence, 16 h; activity change, negative = cytotoxicity: at 58.5 µM (top of the series) unless noted
# [12] = qHTS assay for identifying genotoxic compounds that show differential cytotoxicity against isogenic chicken DT40 cell lines with known DNA damage response pathways - Rad54/Ku70 mutant cell line (AID 743015); settings: DT40 Rad54/Ku70 mutant viability, CellTiter-Glo, 40 h; activity change, negative = cytotoxicity: at 66.8 µM (top of the series); note: nearly all actives have a fitted effect of over 60% in size
# Aromatase (Homo sapiens) = Aromatase (Homo sapiens) (UniProt P11511); assay: qHTS assay to identify aromatase inhibitors (AID 743083); settings: MCF-7 aro ERE, testosterone-driven ERE luciferase, 24 h; activity, negative = inhibition: at 70.3 µM (top of the series); note: nearly all actives have a fitted effect of over 55% in size
# [13] = target: Androgen receptor (Homo sapiens) (UniProt P10275); assay: qHTS assay to identify small molecule antagonists of the androgen receptor (AR) signaling pathway (AID 743035; active = well fitted inhibition curve with a large enough effect in the signal ratio in the repeat runs, not every such curve was filed as active; inconclusive = weak or mixed curves, or effect the other way; inactive = no such curve, though single readings can be large or run the other way; the % refers to the signal ratio; note: potency is the fitted concentration of half-maximal effect); settings: HEK293 AR-UAS-bla, R1881-stimulated, beta-lactamase FRET, 16 h; activity change, negative = inhibition: at 58.5 µM (top of the series) unless noted
# Summary of the method: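 Antagonism is scored as loss of R1881-driven beta-lactamase reporter expression in HEK293 cells carrying the reporter under a UAS element, after 16 h co-treatment at 37C and a 2 h room-temperature FRET substrate read.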
# [14] = target: Androgen receptor (Homo sapiens) (UniProt P10275); assay: qHTS assay to identify small molecule agonists of the androgen receptor (AR) signaling pathway (AID 743036; active = well fitted activation curve with a large enough effect in the signal ratio in the repeat runs, with a control signal flat, not every such curve was filed as active; inconclusive = weak or mixed curves, or effect the other way; inactive = no such curve, though single readings can be large or run the other way; the % refers to the signal ratio; note: potency is the fitted concentration of half-maximal effect); settings: HEK293 AR-UAS-bla GripTite, beta-lactamase FRET ratio, 16 h; activation: at 62.4 µM (top of the series) unless noted
# Summary of the method: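 Screening used 2,000 AR-bla HEK293 cells per well, treated 16 h at 37C with test compounds in DMSO alongside positive and DMSO-only controls; beta-lactamase activity was then read by LiveBLAzer B/G FRET fluorescence after 2 h at room temperature.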
# [15] = tested on: thyroid hormone receptor (rat, GH3 cells); assay: qHTS assay to identify small molecule agonists of the thyroid receptor (TR) signaling pathway (AID 743066; calls by dose curve; note: potency is the fitted concentration of half-maximal effect); settings: GH3.TRE-Luc cells, TR agonist luciferase, 24 h; activation: at 83.9 µM (top of the series) unless noted
# Tags give direction and shape of the fitted curve or compound fluorescence and quenching.
# Chain of UniProt P03372 (P03372 whole entry, looked up): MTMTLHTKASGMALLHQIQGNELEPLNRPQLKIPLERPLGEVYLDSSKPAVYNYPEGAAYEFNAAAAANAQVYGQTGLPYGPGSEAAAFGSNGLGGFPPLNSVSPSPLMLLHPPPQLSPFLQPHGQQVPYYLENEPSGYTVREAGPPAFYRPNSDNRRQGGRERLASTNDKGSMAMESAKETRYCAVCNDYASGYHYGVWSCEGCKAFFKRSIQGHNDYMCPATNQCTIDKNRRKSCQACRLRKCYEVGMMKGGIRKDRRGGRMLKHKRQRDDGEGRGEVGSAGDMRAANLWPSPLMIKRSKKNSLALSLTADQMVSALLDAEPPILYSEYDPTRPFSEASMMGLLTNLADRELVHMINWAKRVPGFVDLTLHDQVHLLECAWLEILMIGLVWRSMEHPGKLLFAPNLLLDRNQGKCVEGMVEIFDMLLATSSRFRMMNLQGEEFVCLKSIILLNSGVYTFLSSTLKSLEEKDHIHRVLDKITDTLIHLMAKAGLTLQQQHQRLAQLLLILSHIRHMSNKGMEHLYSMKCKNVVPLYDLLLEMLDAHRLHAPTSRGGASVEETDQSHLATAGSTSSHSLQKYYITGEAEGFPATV
# Chain of UniProt P10275 (P10275 whole entry, looked up): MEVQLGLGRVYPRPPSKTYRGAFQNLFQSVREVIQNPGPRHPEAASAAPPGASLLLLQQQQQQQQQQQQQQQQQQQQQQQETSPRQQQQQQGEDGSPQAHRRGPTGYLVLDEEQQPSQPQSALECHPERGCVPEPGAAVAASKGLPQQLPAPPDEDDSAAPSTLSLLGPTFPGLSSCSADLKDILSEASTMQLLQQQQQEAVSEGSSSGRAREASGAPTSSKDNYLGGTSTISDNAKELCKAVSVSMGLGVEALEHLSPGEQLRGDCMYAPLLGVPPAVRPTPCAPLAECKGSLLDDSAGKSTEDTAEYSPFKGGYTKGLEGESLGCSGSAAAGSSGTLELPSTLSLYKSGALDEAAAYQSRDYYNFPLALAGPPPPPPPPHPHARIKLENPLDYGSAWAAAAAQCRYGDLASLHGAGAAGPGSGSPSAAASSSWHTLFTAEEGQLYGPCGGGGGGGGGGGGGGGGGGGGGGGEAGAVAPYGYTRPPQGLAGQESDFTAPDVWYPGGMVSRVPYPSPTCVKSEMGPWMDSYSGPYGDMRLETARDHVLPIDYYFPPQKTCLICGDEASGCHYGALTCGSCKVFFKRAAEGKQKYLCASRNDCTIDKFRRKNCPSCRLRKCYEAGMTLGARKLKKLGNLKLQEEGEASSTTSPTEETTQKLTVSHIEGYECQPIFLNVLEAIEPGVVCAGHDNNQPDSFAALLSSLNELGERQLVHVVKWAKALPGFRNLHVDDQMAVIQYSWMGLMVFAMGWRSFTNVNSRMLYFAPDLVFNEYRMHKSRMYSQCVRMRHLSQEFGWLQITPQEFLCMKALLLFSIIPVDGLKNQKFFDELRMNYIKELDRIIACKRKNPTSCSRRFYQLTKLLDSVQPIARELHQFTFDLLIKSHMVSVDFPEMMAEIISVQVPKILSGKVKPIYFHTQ
# Chain of UniProt P11511 (P11511 whole entry, looked up): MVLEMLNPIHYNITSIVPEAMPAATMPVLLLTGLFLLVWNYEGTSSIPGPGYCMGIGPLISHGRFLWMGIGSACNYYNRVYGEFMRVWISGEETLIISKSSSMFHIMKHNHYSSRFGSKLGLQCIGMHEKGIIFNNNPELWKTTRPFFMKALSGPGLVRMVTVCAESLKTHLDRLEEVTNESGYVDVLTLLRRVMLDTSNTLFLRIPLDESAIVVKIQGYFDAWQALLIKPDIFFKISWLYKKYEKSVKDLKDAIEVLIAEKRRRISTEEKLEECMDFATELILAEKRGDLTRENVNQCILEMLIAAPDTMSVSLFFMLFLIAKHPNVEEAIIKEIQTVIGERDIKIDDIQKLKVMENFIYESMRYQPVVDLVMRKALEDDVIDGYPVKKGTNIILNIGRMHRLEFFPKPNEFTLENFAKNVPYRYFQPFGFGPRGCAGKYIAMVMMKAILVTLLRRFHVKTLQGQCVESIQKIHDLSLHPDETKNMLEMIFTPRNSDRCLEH
smiles,measurement,setting,value
CCCC(=O)O,Potency,[1],inactive
same,Potency,[2],"inconclusive [rising, partial curve, poor fit]"
same,Potency,[3],"inconclusive [rising, partial curve, poor fit]"
same,Potency,[4],inactive
same,Potency,[5],"inconclusive [rising, full curve, poor fit]"
O=C(O)c1cc(N=Nc2ccc([N+](=O)[O-])cc2)ccc1O,Potency,[1],active: 21.5 µM
same,Potency,[2],inactive
same,Potency,[4],active: 47.7 µM
same,Potency,[6],"inconclusive [cytotoxic, single point]"
same,Potency,[7],"inconclusive [fluorescent, partial curve]"
same,Potency,[8],active: 60 µM
same,Potency,[9],"inconclusive [rising, partial curve, poor fit]"
same,Potency,[10],active: 53.5 µM
CCCCC(CC)COCC1CO1 (configuration not stated),Potency,[1],"inconclusive [rising, single point]"
same,Potency,[2],inactive
same,Potency,[11],inactive
CC(C)CC(C)(C)C,Potency,[1],inactive
same,Potency,[2],inactive
same,Potency,[12],inactive
same,Potency,[11],"inconclusive [cytotoxic, partial curve, poor fit]"
same,Potency,Aromatase (Homo sapiens),inactive
CCOC(=O)c1nc(C(Cl)(Cl)Cl)n(-c2ccc(Cl)cc2Cl)n1,Potency,[1],"inconclusive [cytotoxic, single point]"
same,Potency,[2],active: 48.6 µM
same,Potency,[3],active: 34.4 µM
same,Potency,[11],active: 49 µM
same,Potency,[13],"inconclusive [rising, partial curve, poor fit]"
same,Potency,[14],inconclusive
same,Potency,[6],inconclusive [cytotoxic]
same,Potency,[15],"inconclusive [inhibitor, partial curve, poor fit]"
same,Potency,[7],"inconclusive [rising, partial curve, poor fit]"
same,Potency,[8],"inconclusive [inhibitor, single point]"
same,Potency,[10],"inconclusive [rising, full curve, poor fit]"
